Drawing on PubChem BioAssay (Tox21), this text covers Potency for one molecule.

This experiment can be described thus: qHTS assay to identify small molecule antagonists of the progesterone receptor (PR) signaling pathway - cell viability counter screen (AID 1346798). Further: nearly all actives have a fitted effect of over 50% in size. The following applies: PR-UAS-bla HEK293T viability, CellTiter-Glo luminescence, 16 h; series mostly up to 92.4 µM. In outline:
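Viability was determined by ATP-based luminescence (CellTiter-Glo) in PR-UAS-bla HEK293T cells cultured in 2% charcoal-stripped serum and incubated 16 hr with compounds under R5020 stimulation.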
For orientation: Quantitative high-throughput screening tests each substance at several concentrations.

Inconclusive results are not listed. The call rests on the fitted dose curve; in most records, active means well fitted cell-killing curve with a large enough effect in the repeat runs; inconclusive means weak or mixed curves, or effect the other way; inactive means no such curve, though single readings can be large or run the other way. The source holds several records for some structures; these can differ, active in one and inactive in another. Certain results were filed several times, with different values. This is not the full list of results. An entry can have further records. Values that stand side by side are repeated measurements in other runs, samples, wells, individuals or studies. Brackets tell where a record comes from. The letters are not those of the source and start again with each entry.
Potency means the concentration at half of the fitted maximal effect.

`C[C@]12CCC(=O)C=C1CC[C@@H]1[C@@H]2CC[C@]2(C)C(=O)CC[C@@H]12`: the Potency result was “inactive [sample A] and active: 30.6 µM [sample B]”.
